Self-cleavage data for 167 variants are collected here from the RNAGym collection of RNA variant scans (doi:10.7554/elife.90254).

The source gives no read counts; variants with many changes may rest on few reads.

The labels stand for the following.
B1: LINE1-full (parent)
chain: UACGUAGGUGGUUUUCCCCUGAUAGUGCUAAGGGGGCCUGGAAGUUUGGACUGGGCAGAGCUCAACACAGCGUGGCAAAGUGGCUGUGGCUAGACUGCCUCUCUGGAUUCCUCGUCACUCAGCAGGGCAUCUCUGAGAGAAAUGCC

The data set covers variants of B1. Briefly: self-cleavage, relative activity (ratio to wild type); higher = more cleavage; in vitro, sequencing; the parent is a self-cleaving ribozyme.
As to U14C U47C C71A U85C U109A A141U, the self-cleavage was determined as 0.06. Under U46C G86A A107G stands 0.17.

As for A107U A129G U134C, the self-cleavage is 1.7. Under A6G U14C U62C stands 0.18. Next, A65G U73A U81C G83A C128U: 0.08; A24U A77G U100C: 1.79. For the variant U1C A57G U62A U104C C113A, the self-cleavage is 0.11. Under G10A U13C U91C A136G A142G stands 0.81; under U13C A78U U112A C120U, 2.42. Next, A2G A30G G139A A141G: 0.69; U39C U52G G75A G139A: 0.48; U20C U26C U100C C118U: 2.22.

For C17A A67C U104C A140U, the self-cleavage came to 0.22. Next, U45G U73A U132C A140G: 1.76. On to C18U U39C U62A, for which the self-cleavage stood at 0.22. In the case of G10A A77U U100A, the self-cleavage came to 0.89.

Turning to A22G U46C C98G, the self-cleavage is 0.25. Regarding C17U U45C A59G U100A A138G, the self-cleavage was 0.17.

As to A69C U73A G93A U134G, the self-cleavage came out at 0.02.

Take U12C A65U U104A: the self-cleavage came to 0.24. With G25C A42G A77G G93U, the self-cleavage worked out at 0.12.

For U9C A65U U102A, the self-cleavage turned out to be 0.42. Under U9C U26C C71U A77G C101U stands 1.65; under A107U U112C U119C A136G, 2; under U26C A124G U143C, 1.33. Next, U45G A69C U108C C113A A121G: 0; A94G U112G C113U A136U: 0.23; A30G A59U C71A: 0.64. For the variant A6U U13C A59G U104C A140U, the self-cleavage turned out to be 0. For U13C U29A U46C U73C G83A A124G, the self-cleavage turned out to be 2.4. Next, U13A U15C A50G U73C A77G: 0. In the case of G4A U14C A43G U100A U109C, the self-cleavage was 0.92. G10A A94U U112C: the self-cleavage was found to be 0.39.

As to A2G A94G U132C, the self-cleavage came to 0.57. On to U13A U14C A57G A129C, for which the self-cleavage stood at 0.21.

With A6C A50G U62A U81A, the self-cleavage was determined as 0. Consider G49A U73A A77U, for which the self-cleavage worked out at 0.71. Consider U13C U62A A65G A140U, for which the self-cleavage is 0.14.

As to G21A A42G U73C U130C A138U, the self-cleavage was determined as 1.67. Under U14C A65G A69U A79G A129U stands 0; under U14A U29A A42G U47G A65G A78U U109C, 0. Next, U15C A67G U85C: 0.26; A77G U109A A117G: 1.84; U13C C76A G83A U109C: 0.5. Next, U14C U73C U91C: 0.48. As for U20C U45C A78U A141G C146U, the self-cleavage was determined as 2.12. As for U13C C37U A64C A67G U87C C103U, the self-cleavage is 0.57. For U12C A42U U102C, the self-cleavage was 1.52.

U29C A30U U104C U115C: the self-cleavage came to 1.84. Next, A24U U29G A140G: 0.82. Take A30G A50U U73C U81C U104A: the self-cleavage came out at 1.53.

As to A57U U96A U109C, the self-cleavage amounted to 0.27.

With A69U U73C A142G, the self-cleavage was 0.06.

Consider U39G U45C U81A U85A A136G G144A, for which the self-cleavage worked out at 0.06. Next, U26A C66A U81A: 0.07; U109C A124U U143A: 1.59; U47G A94G U112C: 0. Next, U73A A92G U96C: 0.15; U12A U47C U130A U132C: 2.46.

With G4A U13C U29C C116U, the self-cleavage stood at 0.72. With G7C U39C U132C, the self-cleavage was 1.77.

As to G53A G72A G88A A94G G127C, the self-cleavage was found to be 0.04. Turning to A78G U91C U104C A124U A138G, the self-cleavage came out at 0.

On to U20A U52C C110U, for which the self-cleavage was determined as 1.29. Under U20C A22G U29C G54U C95U stands 0.22. Take U26A G44A U100A: the self-cleavage was 0.57. Next, U13G U20A U143C: 0.59; C16A U52A G53U: 1.04.

For the variant A2G G55A G89A A92G A142G, the self-cleavage was 0.07. Next, U47A A129G U130C: 1.69; U13C A50G G75U: 0.49. As for A6G U13C A43U A77U, the self-cleavage amounted to 0.28.

Consider A59U U85G U112C, for which the self-cleavage stood at 0.1. Under A117G A138G A141C A142G stands 0.92; under U12G U62A U100A A124U, 0.24; under U9C U26C A78G A79G, 1.53. In the case of U29A A79G U81A, the self-cleavage is 1.15. Under U15C U26C U73A U96A U132C A140G U143A stands 0.07; under A78G G125U A138U, 0.95. Next, A59G U132C A141G: 0.07; A6G A107G A142G: 1.64. In the case of U39A A79G U85C U104C A129U G139U, the self-cleavage came to 0.38. For U20A G40U A50G, the self-cleavage was found to be 2.12. Under U1C U100A U104C stands 1.1; under U5C C19U U115G G125A A140G A141G, 0.89. Next, A50G U52G A94G: 0. Under A59U U109C U119C A121G stands 0.68; under G7U U14C U29A, 1.15; under U15A U47C G49A G70A G72U U91C, 0.05.

As for A42G G106A A124G A142G, the self-cleavage stood at 1.82. In the case of A22C U52C U96A, the self-cleavage came out at 0.15. Next, U47C A50G U85C: 0.8. For A6U U14C G36C, the self-cleavage came to 1.15. Next, U13C U14C U26A A78G U102A A138U A141G: 1.25. Take U23A A30G A31C U102C C113G: the self-cleavage is 0.74. Consider U9A U13A U87A U119G, for which the self-cleavage amounted to 0.13. As to A2G U9G A59U A117G, the self-cleavage came to 1.11. Consider U5C A69G U102C, for which the self-cleavage stood at 0.42. As to A43G A59G A92U C103A, the self-cleavage was found to be 0.08. Under U15A C56U G60A stands 0.08; under U15G A69G G137A, 0; under U15A A31U U46C U62C U119C A129U, 0.1.

Consider U45C U81C G122C C128G, for which the self-cleavage was 0.98. For U39C A69G A136G, the self-cleavage was determined as 0.16. Regarding A42G A57U A65U, the self-cleavage amounted to 0.06. Under U20A A129C G135A A140G stands 1.29; under U13C A65G U104C, 0.

With U46C U47C G54A, the self-cleavage was 1.31.

Take U13C G44A A67G A77G U81A: the self-cleavage turned out to be 0.97. Next, U15C U45C U85C U115A: 0.16; U45C A57G U109A C128U U143C: 0.14. Take U9C A64U A65G A69G G97A A140G: the self-cleavage is 0.13. Consider U14A C84U A117C, for which the self-cleavage was 0.18.

For the variant G8A G35U G54A, the self-cleavage amounted to 0.64. Take U20G G36A A42G G44C A69U A77G A78U G126A: the self-cleavage stood at 0.09. Under U81A G86A U115C U119G stands 0.03. Next, A42U U47A A50G A59G U96C: 0.19; U85C G126A U134C: 0.18. Next, U14C A77U A94U: 0.33; U13C A43C U45C: 1.53. On to U26A A79G U143G, for which the self-cleavage turned out to be 0.62. For U12C U62C U102C C120A A129G U132C, the self-cleavage came to 0.13.

Consider A50G A117U A124G, for which the self-cleavage is 1.02.

For U5C U14G U81A U87C A124G, the self-cleavage was determined as 0.48.

As to A57G A67U U87A, the self-cleavage worked out at 0.52.

As for C61G A64U U96C U134C, the self-cleavage was 0.03. For the variant U14C U81A U104C A107G C113U A117U, the self-cleavage came to 2.53. Next, A59G U102C A124U: 0.09. Next, A42G U62A A64U: 0.09. Under U14C U20A A42G U85A A140U stands 0.22; under U9C G33C G36A A42G U112A, 0.35; under A57G U73A U102C A142G, 0.59. A64C A77U G106U: the self-cleavage amounted to 0.12.

In the case of U9A C118U A138G, the self-cleavage was found to be 1.8. For the variant U14C G83C A94G, the self-cleavage was 0.28. For A6U G125U A129G, the self-cleavage was 0.86.

As to G25U A43G A65U A117G, the self-cleavage was found to be 0.17. Regarding U47C A77U A94G, the self-cleavage is 0.09. As for C38U U100A U112C A142G, the self-cleavage was 1.5.

On to A42G A67U U115C, for which the self-cleavage worked out at 0.23. Consider A59G U62C U115C, for which the self-cleavage was 0.

For the variant A6G A92G A136U, the self-cleavage came out at 0. Under U13C A22G G49C A65G G106A stands 0.14; under A57G C95U C101G, 0.09. Under A69U U91C U112A U119A U143C stands 0; under U85C C111U U119A U134A A138G, 0.21. Next, A138G A142G G144A: 1.38. A22G U81C A141G: the self-cleavage came out at 1.21. Under C28A A30G G32A U134C stands 0.78; under G36A U45C A69G U102C, 1.84; under U14C U45A U96G U112A A142G, 0.1. Next, C16U A77G A129U: 1.58; U9A A30G A31U: 1.5. Turning to A22G U26C G40A A43G A64G C110U, the self-cleavage was determined as 0.45. Under A59G U100C C113U stands 0.07.

In the case of A43G G86A U87C, the self-cleavage is 0.05. Take U14A U15A U108C: the self-cleavage turned out to be 1.4. Under U15C U104A C113U stands 0.57. Under U23C A77G A138G stands 2.89; under U13C A77G U112G C113U, 0.94; under G8A A31U U96A, 0.23. Take G40A C56U A129G: the self-cleavage is 0.08.

G11A A94G A140G: the self-cleavage turned out to be 0.23.

For U26C G40A A43G A77G, the self-cleavage was found to be 1.69. Regarding U15C U109C C123U, the self-cleavage was determined as 1.26. Under G11A A69U U143C stands 0.08; under A6U U104A A124G, 0.33.
